In all, about 310,000 compounds went through this assay and about 14,000 (4.5%) showed an effect of 50% or more. The effect is printed as a negative number. The list shows a part of the results.
These molecules were tested against human ether-à-go-go-related gene (hERG) potassium channel (human, UniProt Q12809) (assay: primary screen, population patch clamp on CHO cells stably expressing hERG).
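Note: peak tail current of the secondary pulse compared with the same well before compound.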

Chain of human ether-à-go-go-related gene (hERG) potassium channel (Q12809 whole entry, looked up): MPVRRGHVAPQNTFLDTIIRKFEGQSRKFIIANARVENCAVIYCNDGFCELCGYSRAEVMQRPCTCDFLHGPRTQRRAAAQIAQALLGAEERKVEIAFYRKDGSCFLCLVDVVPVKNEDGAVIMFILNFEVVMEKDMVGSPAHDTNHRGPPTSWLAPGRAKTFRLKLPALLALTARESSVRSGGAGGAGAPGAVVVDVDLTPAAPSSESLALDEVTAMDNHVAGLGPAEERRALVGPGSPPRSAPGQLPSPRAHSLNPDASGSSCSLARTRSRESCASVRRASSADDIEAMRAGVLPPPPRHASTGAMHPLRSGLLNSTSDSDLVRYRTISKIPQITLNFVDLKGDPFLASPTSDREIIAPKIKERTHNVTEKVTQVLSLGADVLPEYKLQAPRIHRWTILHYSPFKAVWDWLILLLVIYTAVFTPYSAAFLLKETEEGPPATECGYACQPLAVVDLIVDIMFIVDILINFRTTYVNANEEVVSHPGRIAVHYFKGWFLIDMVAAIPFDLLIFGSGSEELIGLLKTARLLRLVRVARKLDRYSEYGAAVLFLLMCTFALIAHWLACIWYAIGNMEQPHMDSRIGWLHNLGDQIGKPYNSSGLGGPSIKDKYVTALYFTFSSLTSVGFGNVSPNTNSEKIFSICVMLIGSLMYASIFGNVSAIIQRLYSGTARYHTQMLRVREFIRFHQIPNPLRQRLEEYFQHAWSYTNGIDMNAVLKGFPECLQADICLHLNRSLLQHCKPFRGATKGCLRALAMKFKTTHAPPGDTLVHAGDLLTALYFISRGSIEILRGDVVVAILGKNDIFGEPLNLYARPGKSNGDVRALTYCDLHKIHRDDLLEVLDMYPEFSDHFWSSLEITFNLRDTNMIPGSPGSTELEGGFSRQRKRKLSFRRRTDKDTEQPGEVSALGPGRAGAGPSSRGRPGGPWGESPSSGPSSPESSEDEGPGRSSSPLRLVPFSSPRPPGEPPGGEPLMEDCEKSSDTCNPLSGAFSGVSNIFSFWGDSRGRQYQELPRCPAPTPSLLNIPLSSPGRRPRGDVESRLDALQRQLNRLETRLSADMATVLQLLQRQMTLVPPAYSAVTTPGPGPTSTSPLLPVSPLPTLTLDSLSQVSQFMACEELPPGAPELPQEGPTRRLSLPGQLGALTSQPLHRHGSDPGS

| SMILES | hERG current change (%, negative = inhibition) at 10uM [%] |
| --- | --- |
| C/C(=N/NS(=O)(=O)c1cccc([N+](=O)[O-])c1)c1c[nH]c2ccccc12 | 13 |
| ONC(=Nc1cccc(C(F)(F)F)c1)c1cccnc1 | -8.43 |
| O=C(NC(c1ccccc1)c1ccccc1)C1CCCN(S(=O)(=O)c2cnc[nH]2)C1 (centres unmarked) | 11 |
| CC(=O)Nc1ccc(NC(=O)Cn2cnc(S(=O)(=O)N3CCOCC3)c2)cc1 | 10.8 |
| CCC(C)C(NC(N)=O)C(=O)Nc1ccc(OCc2ccccc2)cc1 (centres unmarked) | 15.4 |
| CCOc1cccc2cc(C(=O)NCc3ccccc3Cl)c(=O)oc12 | 11.2 |
| Cc1cc(NC(=O)c2ccc(S(=O)(=O)N(C)CC3CCCO3)cc2)no1 (centres unmarked) | 2.09 |
| O=c1oc2ccccc2cc1-c1csc(Nc2nc3ccc(F)cc3s2)n1 | 4.43 |
| O=C(NNC(=O)c1sc2cccc(Cl)c2c1Cl)Nc1ccccc1 | 10.2 |
| CCC(C)C(=O)N1CCc2cc(-c3csc(N)n3)ccc21 (centres unmarked) | 12.1 |
| COc1cccc(NC(=O)CN(c2ccc([N+](=O)[O-])cc2)S(=O)(=O)c2ccccc2)c1 | -5.69 |
| Cc1cccc(Nc2nccc(N(C)C)c2C#N)c1 | 10 |
| O=c1cc(-c2c(O)c3ccccc3n(Cc3ccccc3)c2=O)[nH][nH]1 | 20.6 |
| CCCCCc1ccc(-c2ccc(OC)cc2)nc1 | 19.7 |
| Cc1ccsc1C(=O)NCCc1nnc2ccccn12 | 18.9 |
| COc1cccc(NC(=O)C(Sc2nnc(Nc3ccccc3C)s2)c2ccccc2)c1 (centres unmarked) | 1.76 |
| CCOC(=O)c1sc(NC(=O)c2ccccc2C(=O)O)c(C(=O)OCC)c1C | -1.78 |
| Cc1ccc(S(=O)(=O)N2C(=O)C(C)SC2=Nc2ccccc2)cc1 (centres unmarked) | 9.44 |
| Cn1cc(S(=O)(=O)N2CCCC2)cc1C(=O)NCc1ccccc1Cl | -18.4 |
| Cc1cc(C)n(CC(C)O)c(=O)c1C#N (centres unmarked) | 8.95 |
| Cc1cccnc1Nc1nc(-c2ccc(O)cc2O)cs1 | 0.45 |
| CCCCN(C(=O)CSc1nnc(-c2ccccc2)n1C)c1c(N)n(Cc2ccccc2)c(=O)[nH]c1=O | 7.33 |

| SMILES | hERG current change (%, negative = inhibition) at 10uM [%] |
| --- | --- |
| CC1CN=C2C(C(=O)Nc3ccccc3)=C(O)CC(c3ccccc3)N21 (centres unmarked) | -36.2 |
| O=C(c1ccc2oc(CCCc3ccccc3)nc2c1)N1CCCCC1CO (centres unmarked) | 1.53 |
| CC(C)NS(=O)(=O)c1ccc(OCC(=O)Nc2ccc(F)cc2F)cc1 | -4.25 |
| O=C1C2C3C=CC(C3)C2C(=O)N1Cc1ccccc1 (centres unmarked) | 0.693 |
| COc1ccc(C(=O)C(Cc2cc(C(C)=O)ccc2OC)N2CCCC2)cc1 (centres unmarked) | -8.91 |
| CCCn1c(=O)c(C#N)cn(C2CC2)c1=O | 15.3 |
| CCN(CC(=O)Nc1ccc(NC(C)=O)cc1)C(=O)c1ccc2ccccc2c1 | 8.97 |
| COc1ccc(-c2cc(C(=O)NNC(=O)c3csc(N4CCOCC4)n3)c3ccccc3n2)cc1OC | 15.5 |
| COc1ccc(CC(=O)OCC(=O)NC(=O)NC(C)C)cc1 | 2.19 |
| CC(OC(=O)Cc1c[nH]c2ccccc12)C(=O)N(C)c1ccccc1 (centres unmarked) | -0.614 |
| Cc1ccccc1NCC(=O)N/N=C\C=C\c1cccc([N+](=O)[O-])c1 | -44.4 |
| CCOC(=O)c1ncn2c1CN(C)C(=O)c1cc(F)ccc1-2 | 8.55 |
| O=C(O)CCN1c2cccc3cccc(c23)S1(=O)=O | 7.6 |
| CCC(C)N1C(=S)SC(C)(C)C1N(O)C(=O)NC1CCCCC1 (centres unmarked) | 9.19 |
| O=C(NC1CCCC1)c1cccc(Cn2cc([N+](=O)[O-])cn2)c1 | -32.8 |
| Oc1cccc(/C=N/NC(=S)NCCN2CCOCC2)c1O | 20 |
| COC(=O)c1c(C)nn(-c2ccccc2)c1-n1cccc1 | 5.98 |
| CN(C)C(=O)CNC(=O)C1CCCCC1 | 3.19 |
| CCOC(=O)c1ccc(NC(=O)CSCc2ccco2)cc1 | 17.7 |
| CCCCCC(=O)NC(=S)Nc1ccc(Cl)cn1 | -15 |
| CCCCn1c(=O)c(CCC(=O)OCC(=O)Nc2ccc(F)c(Cl)c2)nc2ccccc21 | 0.0727 |
| COc1ccc(Cc2nc(C(=O)Nc3ccccc3)cs2)cc1 | 0.282 |
